This note sets out measurements from ChEMBL document CHEMBL4888484, “Replenishing the malaria drug discovery pipeline: Screening and hit evaluation of the MMV Hit Generation Library 1 (HGL1) against asexual blood stage Plasmodium falciparum ,using a nano luciferase reporter read-out” (2022).

Out of some 150,000 compounds screened, about 540 (0.36%) showed an effect of 50% or more. The list shows a part of the results.

This experiment has as its system Plasmodium falciparum. Description: Primary screen in NF54 nanoGlo assay, in single point, at 2uM, 72h; a lower Z score goes with more inhibition. The conditions noted are these: timepoint 72 hour. In kind it is functional, Erythrocyte.
On to `Cn1ncnc1CCNCc1cc(Cl)ccc1F`, for which the “% Inhibition” value is -9% and the Z score was determined as 0.94.
The like results for `COc1ccc(OC)c(NC(=O)[C@H]2CCCN(c3nnc4c(Cl)cccn34)C2)c1` were, in that order, -14% and 2.5.
`CCN(CCC(=O)O)C(=O)CCc1ccc(Cl)cc1`: the “% Inhibition” value is given as -11% and the Z score worked out at 0.96.
In the case of `C[C@H]1CCCN1C(=O)Cn1[nH]c2ccccc2c1=O`, the “% Inhibition” value is 6% and the Z score was -1.11.
On to `COc1ccc(OC)c(-n2c(C3CCCCC3)n[nH]c2=O)c1`, for which the “% Inhibition” value is 4% and the Z score is reported as -0.69.
On to `CN1CCCc2cc(C(=O)N3CCC(CCC(=O)NC4CC4)CC3)ccc21`, for which the “% Inhibition” value is on record as 0% and the Z score is -0.01.
Regarding `CC(C)(C)OC(=O)N1CCN(c2nnc(C(C)(C)C)[nH]2)CC1`, the “% Inhibition” value is given as -9% and the Z score was determined as 1.54.
The like results for `CCC(CC)[C@H](NCc1nc(C2CC2)nn1C)c1cccs1` were, in that order, -7% and 1.08.
`C[C@H]1C(=O)N(C)C[C@@H](CNS(=O)(=O)c2ccccc2)N1Cc1cccnc1`: the “% Inhibition” value amounted to 40% and the Z score was -5.81.
As to `CCN(C)C1(CNS(=O)(=O)N2CCCC2)CCCCC1`, the “% Inhibition” value was -9% and the Z score is 1.67.
For `CN(CC(=O)NC1CCCCCCC1)CC1(C)COC1`, the “% Inhibition” value was -1% and the Z score came to 0.19.
For `O=C(Nc1nc2c(s1)CN(C(=O)COc1ccccc1F)CC2)c1ccsc1`, the “% Inhibition” value is listed as -2% and the Z score is given as 0.32.
Regarding `CC(C)NC(=O)NCc1ccc(C(=O)N2CCN(S(=O)(=O)c3ccc4c(c3)CCCC4)CC2)cc1`, the “% Inhibition” value is 19% and the Z score is recorded as -2.42.
As to `CCc1c(C)sc2c1CCN(C(=O)NCc1cccc(OC)c1)[C@@H]2c1ccc(F)cc1`, the “% Inhibition” value is listed as -14% and the Z score was determined as 1.41.
Take `Cc1cc(NC(=O)Nc2ccccc2)c2[nH]c(C(=O)NCCc3ccco3)c(-c3ccccc3)c2c1`: the “% Inhibition” value is on record as -10% and the Z score came out at 1.9.
As to `CN1C[C@@H](C(=O)Nc2ccc(NC(=O)OC(C)(C)C)nc2)CC1=O`, the “% Inhibition” value is given as -10% and the Z score came to 1.6.
Take `O=C(Cn1cc(-c2nc(-c3ccc(Cl)cc3)no2)ccc1=O)NCc1ccc(F)cc1`: the “% Inhibition” value is reported as -4% and the Z score stood at 0.56.
The like results for `O=C(c1cnn2ccccc12)N1CCC(n2ncc3c2CNC3)CC1` were, in that order, -16% and 2.42.
For the compound `Cc1nscc1C(=O)N1C[C@@H]2CCCN(C(=O)c3csnc3C)[C@@H]2C1`, the “% Inhibition” value is listed as 6% and the Z score is given as -1.03.
For `CN(Cc1ccn(C)n1)C(=O)NC[C@H]1CCC(C)(C)c2ccccc21`, the “% Inhibition” value is on record as -6% and the Z score is on record as 1.06.
The like results for `C[C@@H](CO)N(C)Cc1nc2c(s1)CN(C(=O)OC(C)(C)C)CC2` were, in that order, 1% and -0.19.
In the case of `COc1cc(C(=O)OC(C)C(=O)Nc2ccc3c(c2)OCCO3)cc2c1OC(C)C2` (stereo not given), the “% Inhibition” value is -15% and the Z score is given as 1.4.
The like results for `Cc1cccc(C2C(C(=O)NC(C)C)c3ccccc3C(=O)N2C2CC2)c1` (stereo not given) were, in that order, -14% and 1.4.
For `Cc1nc(NC(=O)c2oc3ccccc3c2CN(C)C)n[nH]1`, the “% Inhibition” value is -14% and the Z score is given as 1.82.
In the case of `O=C(Nc1nccs1)C1CCCN(C(=O)C2CC2c2ccco2)C1` (stereo not given), the “% Inhibition” value is given as -15% and the Z score is listed as 1.32.
As for `CS(=O)(=O)N1C[C@H]2CC[C@@H](C1)N(C(=O)c1ccccc1C#N)C2`, the “% Inhibition” value is -7% and the Z score was found to be 0.64.
On to `CCn1ncnc1[C@H](C)NC(=O)c1nc(C(C)C)cs1`, for which the “% Inhibition” value was -6% and the Z score is recorded as 0.79.
On to `CN(Cc1ccccc1)C(=O)c1cccc(Nc2c(Oc3ccccc3)cnn(-c3ccc(Cl)cc3)c2=O)c1`, for which the “% Inhibition” value was -10% and the Z score was 1.55.
On to `c1ccc(-c2cc(CN3C[C@H]4CC[C@@H](C3)N(CC3CC3)C4)on2)cc1`, for which the “% Inhibition” value was -8% and the Z score is given as 1.18.
The like results for `O=C(Nc1ccc2c(c1)N(C(=O)c1ccccc1)CCC2)c1ccccc1Cl` were, in that order, -15% and 1.49.
For `COc1cc(=O)[nH]cc1C(=O)N1CCO[C@H]2CCC[C@H]21`, the “% Inhibition” value is -6% and the Z score is recorded as 0.69.
For the compound `CCCN(CCC)Cc1ccc(C(=O)N2C3CCC2CC(Oc2cccc(C(F)(F)F)c2)C3)cc1` (stereo not given), the “% Inhibition” value turned out to be 3% and the Z score was -0.53.
In the case of `C[C@H]1CCCCN1CCNC(=O)N(Cc1cccc(O)c1)CC1CC1`, the “% Inhibition” value was -10% and the Z score stood at 1.13.
In the case of `c1cnn(-c2cncc(NCC3CCCCCCC3)n2)c1`, the “% Inhibition” value came out at 1% and the Z score is listed as -0.11.
Turning to `COc1ccc(C(=O)N2CCC3(CC2)OC[C@@H](C(=O)N2CCOCC2)N3C(=O)c2ccc(C)cc2)cc1`, the “% Inhibition” value is listed as 7% and the Z score is listed as -1.34.
Consider `Cc1ccc(-c2nnc3n2CC(C)(C)CC3)o1`, for which the “% Inhibition” value was -7% and the Z score is 1.23.
The like results for `Cc1c(C(=O)N(C)Cc2cscn2)n(C)c2c(C)cccc12` were, in that order, -5% and 0.53.
Turning to `Cc1n[nH]c(C)c1CCC(=O)N(C)Cc1ccoc1`, the “% Inhibition” value is reported as -11% and the Z score is on record as 1.57.
`CCC(C)NC(=O)CN1C[C@H](C(=O)OC)[C@@H](c2cncn2C)C1` (stereo not given in full): the “% Inhibition” value is -10% and the Z score is recorded as 2.17.
On to `Cc1nc(Nc2ccc(N3CCOCC3)cc2)cc(-c2ccccc2)n1`, for which the “% Inhibition” value turned out to be 6% and the Z score is -1.02.
